Numbering of substitutions follows the chain as printed; changes in the protein carry UniProt numbers. The list shows a part of the results.
T1: RBFOX1 RRM RbFoxmut (Fox-RRM*) (Homo sapiens, UniProt Q9NWB1 109-208, R118D;E147R;N151S;E152T)
T1 sequence: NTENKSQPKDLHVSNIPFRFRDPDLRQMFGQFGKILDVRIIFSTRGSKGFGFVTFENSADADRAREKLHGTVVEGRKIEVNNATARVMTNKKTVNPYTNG

B1: GCACAUA (DNA:RNA)
RNA: GGGAGACCGGAAUUCAGAUUGUCCGCACAUAUUAAAUCCCGUCGUAGCCACCA
DNA 1: CAATCTGAATTCCGGTCTCCC
DNA 2: TGGTGGCTACGACGGGATT
B2: ACUGAGA (DNA:RNA)
RNA: B1 RNA with G25A, A27U, C28G, U30G
DNA 1: CAATCTGAATTCCGGTCTCCC
DNA 2: TGGTGGCTACGACGGGATT
B3: GUAUGGU (DNA:RNA)
RNA: B1 RNA with C26U, C28U, A29G, U30G, A31U
DNA 1: CAATCTGAATTCCGGTCTCCC
DNA 2: TGGTGGCTACGACGGGATT
B4: GCCUCUA (DNA:RNA)
RNA: B1 RNA with A27C, C28U, A29C
DNA 1: CAATCTGAATTCCGGTCTCCC
DNA 2: TGGTGGCTACGACGGGATT
B5: CUCGAGC (DNA:RNA)
RNA: B1 RNA with G25C, C26U, A27C, C28G, U30G, A31C
DNA 1: CAATCTGAATTCCGGTCTCCC
DNA 2: TGGTGGCTACGACGGGATT
B6: UGCAGAC (DNA:RNA)
RNA: GGGAGACCGGAAUUCAGAUUGUCCUGCAGACUUAAAUCCCGUCGUAGCCACCA
DNA 1: CAATCTGAATTCCGGTCTCCC
DNA 2: TGGTGGCTACGACGGGATT
B7: UGAGAUA (DNA:RNA)
RNA: B1 RNA with G25U, C26G, C28G
DNA 1: CAATCTGAATTCCGGTCTCCC
DNA 2: TGGTGGCTACGACGGGATT
B8: GUUCCUC (DNA:RNA)
RNA: B1 RNA with C26U, A27U, A29C, A31C
DNA 1: CAATCTGAATTCCGGTCTCCC
DNA 2: TGGTGGCTACGACGGGATT
B9: CGGAGGU (DNA:RNA)
RNA: B6 RNA with U25C, C27G, A30G, C31U
DNA 1: CAATCTGAATTCCGGTCTCCC
DNA 2: TGGTGGCTACGACGGGATT
B10: UAAUUCC (DNA:RNA)
RNA: B6 RNA with G26A, C27A, A28U, G29U, A30C
DNA 1: CAATCTGAATTCCGGTCTCCC
DNA 2: TGGTGGCTACGACGGGATT
B11: UCUCGAA (DNA:RNA)
RNA: B1 RNA with G25U, A27U, A29G, U30A
DNA 1: CAATCTGAATTCCGGTCTCCC
DNA 2: TGGTGGCTACGACGGGATT
B12: AUAUACA (DNA:RNA)
RNA: B1 RNA with G25A, C26U, C28U, U30C
DNA 1: CAATCTGAATTCCGGTCTCCC
DNA 2: TGGTGGCTACGACGGGATT
B13: GUAGGAU (DNA:RNA)
RNA: B1 RNA with C26U, C28G, A29G, U30A, A31U
DNA 1: CAATCTGAATTCCGGTCTCCC
DNA 2: TGGTGGCTACGACGGGATT
B14: UUCUUAU (DNA:RNA)
RNA: B6 RNA with G26U, A28U, G29U, C31U
DNA 1: CAATCTGAATTCCGGTCTCCC
DNA 2: TGGTGGCTACGACGGGATT
B15: CAAGACU (DNA:RNA)
RNA: B1 RNA with G25C, C26A, C28G, U30C, A31U
DNA 1: CAATCTGAATTCCGGTCTCCC
DNA 2: TGGTGGCTACGACGGGATT
B16: GCCGACC (DNA:RNA)
RNA: B1 RNA with A27C, C28G, U30C, A31C
DNA 1: CAATCTGAATTCCGGTCTCCC
DNA 2: TGGTGGCTACGACGGGATT
B17: GCGUGCC (DNA:RNA)
RNA: B1 RNA with A27G, C28U, A29G, U30C, A31C
DNA 1: CAATCTGAATTCCGGTCTCCC
DNA 2: TGGTGGCTACGACGGGATT
B18: GUUCUCA (DNA:RNA)
RNA: B1 RNA with C26U, A27U, A29U, U30C
DNA 1: CAATCTGAATTCCGGTCTCCC
DNA 2: TGGTGGCTACGACGGGATT
B19: CCUGCCG (DNA:RNA)
RNA: B1 RNA with G25C, A27U, C28G, A29C, U30C, A31G
DNA 1: CAATCTGAATTCCGGTCTCCC
DNA 2: TGGTGGCTACGACGGGATT
B20: AGAGGGG (DNA:RNA)
RNA: B6 RNA with U25A, C27A, A28G, A30G, C31G
DNA 1: CAATCTGAATTCCGGTCTCCC
DNA 2: TGGTGGCTACGACGGGATT
B21: UAGCCCU (DNA:RNA)
RNA: B1 RNA with G25U, C26A, A27G, A29C, U30C, A31U
DNA 1: CAATCTGAATTCCGGTCTCCC
DNA 2: TGGTGGCTACGACGGGATT
B22: UCAUGCA (DNA:RNA)
RNA: B1 RNA with G25U, C28U, A29G, U30C
DNA 1: CAATCTGAATTCCGGTCTCCC
DNA 2: TGGTGGCTACGACGGGATT
B23: CCAUGGU (DNA:RNA)
RNA: B1 RNA with G25C, C28U, A29G, U30G, A31U
DNA 1: CAATCTGAATTCCGGTCTCCC
DNA 2: TGGTGGCTACGACGGGATT
B24: AGCUUGG (DNA:RNA)
RNA: B6 RNA with U25A, A28U, G29U, A30G, C31G
DNA 1: CAATCTGAATTCCGGTCTCCC
DNA 2: TGGTGGCTACGACGGGATT
B25: AUUGAGA (DNA:RNA)
RNA: B1 RNA with G25A, C26U, A27U, C28G, U30G
DNA 1: CAATCTGAATTCCGGTCTCCC
DNA 2: TGGTGGCTACGACGGGATT
B26: CGGUUAA (DNA:RNA)
RNA: B6 RNA with U25C, C27G, A28U, G29U, C31A
DNA 1: CAATCTGAATTCCGGTCTCCC
DNA 2: TGGTGGCTACGACGGGATT
B27: ACAGUAU (DNA:RNA)
RNA: B1 RNA with G25A, C28G, A29U, U30A, A31U
DNA 1: CAATCTGAATTCCGGTCTCCC
DNA 2: TGGTGGCTACGACGGGATT
B28: CGAGGAU (DNA:RNA)
RNA: B6 RNA with U25C, C27A, A28G, C31U
DNA 1: CAATCTGAATTCCGGTCTCCC
DNA 2: TGGTGGCTACGACGGGATT
B29: ACCGGUA (DNA:RNA)
RNA: B1 RNA with G25A, A27C, C28G, A29G
DNA 1: CAATCTGAATTCCGGTCTCCC
DNA 2: TGGTGGCTACGACGGGATT
B30: GAUAGAC (DNA:RNA)
RNA: B6 RNA with U25G, G26A, C27U
DNA 1: CAATCTGAATTCCGGTCTCCC
DNA 2: TGGTGGCTACGACGGGATT
B31: AGGCAAG (DNA:RNA)
RNA: B1 RNA with G25A, C26G, A27G, U30A, A31G
DNA 1: CAATCTGAATTCCGGTCTCCC
DNA 2: TGGTGGCTACGACGGGATT

target: T1, RBFOX1 RRM RbFoxmut (Fox-RRM*); assay: EMSA; HiTS-Eq, 1 nM pool, 10 min; buffer printed only for the single-RNA assays: 10 mM Tris pH 7.5, 150 mM NaCl, 3.4 mM EDTA, 0.001% NP-40, 30 C; settings: tags: His6 N-terminal (pET28a); label: 5' 32P
Outline: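 Relative association constants, normalised to the cognate motif, were derived by comparing read counts of each RNA species with those of the control reaction. The RNA sequenced was the free fraction, separated by 8% native PAGE after a 10 min equilibration in 50 µL of 1 nM 5′-radiolabelled RNA (7 randomized nucleotides) with increasing concentrations of purified wild-type or mutant RbFox RRM.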

| Binder | binding signal |
| --- | --- |
| B1 | 0.111 KA relative to UGCAUGU |
| B2 | 0.0809 KA relative to UGCAUGU |
| B3 | 0.325 KA relative to UGCAUGU |
| B4 | 0.0902 KA relative to UGCAUGU |
| B5 | 0.0956 KA relative to UGCAUGU |
| B6 | 0.0961 KA relative to UGCAUGU |
| B7 | 0.127 KA relative to UGCAUGU |
| B8 | 0.0747 KA relative to UGCAUGU |
| B9 | 0.119 KA relative to UGCAUGU |
| B10 | 0.067 KA relative to UGCAUGU |
| B11 | 0.08 KA relative to UGCAUGU |
| B12 | 0.0965 KA relative to UGCAUGU |
| B13 | 0.069 KA relative to UGCAUGU |
| B14 | 0.111 KA relative to UGCAUGU |
| B15 | 0.0508 KA relative to UGCAUGU |
| B16 | 0.0677 KA relative to UGCAUGU |

| Binder | binding signal |
| --- | --- |
| B17 | 0.223 KA relative to UGCAUGU |
| B18 | 0.129 KA relative to UGCAUGU |
| B19 | 0.0847 KA relative to UGCAUGU |
| B20 | 0.0899 KA relative to UGCAUGU |
| B21 | 0.0798 KA relative to UGCAUGU |
| B22 | 0.197 KA relative to UGCAUGU |
| B23 | 0.125 KA relative to UGCAUGU |
| B24 | 0.123 KA relative to UGCAUGU |
| B25 | 0.0924 KA relative to UGCAUGU |
| B26 | 0.0724 KA relative to UGCAUGU |
| B27 | 0.136 KA relative to UGCAUGU |
| B28 | 0.0964 KA relative to UGCAUGU |
| B29 | 0.0921 KA relative to UGCAUGU |
| B30 | 0.0781 KA relative to UGCAUGU |
| B31 | 0.0822 KA relative to UGCAUGU |

Source: PMC9911399, “Two distinct binding modes provide the RNA-binding protein RbFox with extraordinary sequence specificity”
